In the experiment the test system is MX-1 Mammary Tumor. The experiment can be described thus: MX-1 mammary tumor implanted in the mammary fat pad of mice, i.p. treatment. Particulars: dosages of 135, 90 and 60 mg/kg per dose.

On to `CCN(CC)C(=S)Oc1c(Cl)c(OC)nc(C(Cl)(Cl)Cl)c1Cl` [DM-DETC-PEN], for which the “antitumor activity in comparison to DM-PEN” value is recorded as “potent antitumor activity greater than that observed for DM-PEN”.
On to `COc1nc(C(Cl)(Cl)Cl)c(Cl)c(OC(=S)N(C)C)c1Cl` [DM-DMTC-PEN], for which the “antitumor activity in comparison to DM-PEN” value was “potent antitumor activity greater than that observed for DM-PEN”.

These data come from patent US7122563B2, “Derivatives of 4-demethylpenclomedine, use thereof and preparation thereof” (Southern Research Institute, priority 2005, dated 2006).
